The results in this text go back to paper PMC12820563, “FoxP3 forms a head-to-head dimer in vivo and stabilizes its multimerization on adjacent microsatellites”.

The other results are listed elsewhere or left out.

The experiment concerns the target T1, MBP-FoxP1dN (Mus musculus, UniProt P58462 326-579).
T1 sequence: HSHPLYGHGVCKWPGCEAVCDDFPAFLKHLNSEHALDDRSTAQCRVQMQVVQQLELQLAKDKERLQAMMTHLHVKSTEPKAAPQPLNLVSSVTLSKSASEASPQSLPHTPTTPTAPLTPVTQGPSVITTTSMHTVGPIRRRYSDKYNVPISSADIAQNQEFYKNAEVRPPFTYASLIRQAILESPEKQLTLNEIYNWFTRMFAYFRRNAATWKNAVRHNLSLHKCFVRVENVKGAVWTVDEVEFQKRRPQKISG
The experiment can be described thus: PD-seq (MBP pull-down with sequencing); 20 mM Tris-HCl pH 7.5, 100 mM NaCl, 1.5 mM MgCl2, 0.4 uM protein, 0.1 uM dsDNA library, 30 min, room temperature, amylose pull-down; high values mean tight binding. To be noted: protein: recombinant; tags: His6-MBP; chain copies: 2; dsDNA, one strand shown. The method, boiled down: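 A degenerate double-stranded DNA library, filled in with Klenow, was added at 0.1 µM to 0.4 µM His6-MBP-tagged mouse FoxP3 or FoxP1 fragment lacking the N-terminus, expressed in E. coli. Incubation lasted 30 min at room temperature in Tris pH 7.5 buffer with NaCl and MgCl2, after which complexes were collected on amylose resin, washed three times, digested with proteinase K to free the DNA, barcoded by PCR and sequenced by Illumina. Binding is the pooled-replicate reads-per-million enrichment of pull-down over input.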
In the case of “GATGATTGTTCTCCCAGCTGATGAATTGCAGGGTTCGAGTAAACAAATTTTCCTAATCTTTCTGTTCAAGCGCCATCTAC”, the binding signal was 0.958 RPM ratio (pull-down/input).

As for “GATGATTGTTCTCCCAGCTGATGAATTATGAGACTCGAGTAAACAAATTTTCCTAATCTTTCTGTTCAAGCGCCATCTAC”, the binding signal is 0.918 RPM ratio (pull-down/input).

In the case of “GATGATTGTTCTCCCAGCTGATGAATTAACTAAGTCGAGTAAACAAATTTTCCTAATCTTTCTGTTCAAGCGCCATCTAC”, the binding signal was 0.827 RPM ratio (pull-down/input).

Consider “GATGATTGTTCTCCCAGCTGATGAATTGGTAGCCTCGAGTAAACAAATTTTCCTAATCTTTCTGTTCAAGCGCCATCTAC”, for which the binding signal is 0.922 RPM ratio (pull-down/input).

As for “GATGATTGTTCTCCCAGCTGATGAATTACGCAACTCGAGTAAACAAATTTTCCTAATCTTTCTGTTCAAGCGCCATCTAC”, the binding signal was 1.09 RPM ratio (pull-down/input).

As for “GATGATTGTTCTCCCAGCTGATGAATTATGCTTGTCGAGTAAACAAATTTTCCTAATCTTTCTGTTCAAGCGCCATCTAC”, the binding signal is 1.28 RPM ratio (pull-down/input).

As to “GATGATTGTTCTCCCAGCTGATGAATTTTAGCTTTCGAGTAAACAAATTTTCCTAATCTTTCTGTTCAAGCGCCATCTAC”, the binding signal is 1.07 RPM ratio (pull-down/input).

Take “GATGATTGTTCTCCCAGCTGATGAATTCACCTCTTCGAGTAAACAAATTTTCCTAATCTTTCTGTTCAAGCGCCATCTAC”: the binding signal is 0.858 RPM ratio (pull-down/input).

“GATGATTGTTCTCCCAGCTGATGAATTCACCACGTCGAGTAAACAAATTTTCCTAATCTTTCTGTTCAAGCGCCATCTAC”: the binding signal is 0.911 RPM ratio (pull-down/input).

Turning to “GATGATTGTTCTCCCAGCTGATGAATTAGACCGTTCGAGTAAACAAATTTTCCTAATCTTTCTGTTCAAGCGCCATCTAC”, the binding signal is 0.892 RPM ratio (pull-down/input).

As to “GATGATTGTTCTCCCAGCTGATGAATTGGGTATTTCGAGTAAACAAATTTTCCTAATCTTTCTGTTCAAGCGCCATCTAC”, the binding signal is 0.949 RPM ratio (pull-down/input).

In the case of “GATGATTGTTCTCCCAGCTGATGAATTTACACCCTCGAGTAAACAAATTTTCCTAATCTTTCTGTTCAAGCGCCATCTAC”, the binding signal is 1.18 RPM ratio (pull-down/input).

For the sequence “GATGATTGTTCTCCCAGCTGATGAATTGGTCCTTTCGAGTAAACAAATTTTCCTAATCTTTCTGTTCAAGCGCCATCTAC”, the binding signal was 0.906 RPM ratio (pull-down/input).

For the sequence “GATGATTGTTCTCCCAGCTGATGAATTTATGCTGTCGAGTAAACAAATTTTCCTAATCTTTCTGTTCAAGCGCCATCTAC”, the binding signal was 1.43 RPM ratio (pull-down/input).

For “GATGATTGTTCTCCCAGCTGATGAATTGTGCAGTTCGAGTAAACAAATTTTCCTAATCTTTCTGTTCAAGCGCCATCTAC”, the binding signal is 1.1 RPM ratio (pull-down/input).

On to “GATGATTGTTCTCCCAGCTGATGAATTCCAGTGATCGAGTAAACAAATTTTCCTAATCTTTCTGTTCAAGCGCCATCTAC”, for which the binding signal is 0.853 RPM ratio (pull-down/input).

“GATGATTGTTCTCCCAGCTGATGAATTGGCGGTTTCGAGTAAACAAATTTTCCTAATCTTTCTGTTCAAGCGCCATCTAC”: the binding signal is 0.86 RPM ratio (pull-down/input).

For the sequence “GATGATTGTTCTCCCAGCTGATGAATTGTTTACATCGAGTAAACAAATTTTCCTAATCTTTCTGTTCAAGCGCCATCTAC”, the binding signal is 2.91 RPM ratio (pull-down/input).

“GATGATTGTTCTCCCAGCTGATGAATTGTCAAAGTCGAGTAAACAAATTTTCCTAATCTTTCTGTTCAAGCGCCATCTAC”: the binding signal is 0.979 RPM ratio (pull-down/input).

In the case of “GATGATTGTTCTCCCAGCTGATGAATTGAAGGGATCGAGTAAACAAATTTTCCTAATCTTTCTGTTCAAGCGCCATCTAC”, the binding signal was 0.798 RPM ratio (pull-down/input).

Take “GATGATTGTTCTCCCAGCTGATGAATTCTACGGCTCGAGTAAACAAATTTTCCTAATCTTTCTGTTCAAGCGCCATCTAC”: the binding signal is 0.774 RPM ratio (pull-down/input).

As to “GATGATTGTTCTCCCAGCTGATGAATTGCTCTTGTCGAGTAAACAAATTTTCCTAATCTTTCTGTTCAAGCGCCATCTAC”, the binding signal is 1.06 RPM ratio (pull-down/input).

In the case of “GATGATTGTTCTCCCAGCTGATGAATTGGATAAGTCGAGTAAACAAATTTTCCTAATCTTTCTGTTCAAGCGCCATCTAC”, the binding signal was 0.947 RPM ratio (pull-down/input).

Regarding “GATGATTGTTCTCCCAGCTGATGAATTACTTGTATCGAGTAAACAAATTTTCCTAATCTTTCTGTTCAAGCGCCATCTAC”, the binding signal is 1.41 RPM ratio (pull-down/input).

For the sequence “GATGATTGTTCTCCCAGCTGATGAATTGGCGGCCTCGAGTAAACAAATTTTCCTAATCTTTCTGTTCAAGCGCCATCTAC”, the binding signal was 0.813 RPM ratio (pull-down/input).

In the case of “GATGATTGTTCTCCCAGCTGATGAATTTTTAGCGTCGAGTAAACAAATTTTCCTAATCTTTCTGTTCAAGCGCCATCTAC”, the binding signal is 0.95 RPM ratio (pull-down/input).

Turning to “GATGATTGTTCTCCCAGCTGATGAATTTTTTTAGTCGAGTAAACAAATTTTCCTAATCTTTCTGTTCAAGCGCCATCTAC”, the binding signal was 1.05 RPM ratio (pull-down/input).

For the sequence “GATGATTGTTCTCCCAGCTGATGAATTGCAGTCGTCGAGTAAACAAATTTTCCTAATCTTTCTGTTCAAGCGCCATCTAC”, the binding signal is 1.02 RPM ratio (pull-down/input).

Consider “GATGATTGTTCTCCCAGCTGATGAATTCTCTGGCTCGAGTAAACAAATTTTCCTAATCTTTCTGTTCAAGCGCCATCTAC”, for which the binding signal was 0.769 RPM ratio (pull-down/input).

“GATGATTGTTCTCCCAGCTGATGAATTTGTATGGTCGAGTAAACAAATTTTCCTAATCTTTCTGTTCAAGCGCCATCTAC”: the binding signal was 1.2 RPM ratio (pull-down/input).

For the sequence “GATGATTGTTCTCCCAGCTGATGAATTGGACAAGTCGAGTAAACAAATTTTCCTAATCTTTCTGTTCAAGCGCCATCTAC”, the binding signal was 0.807 RPM ratio (pull-down/input).

Take “GATGATTGTTCTCCCAGCTGATGAATTCGACTCTTCGAGTAAACAAATTTTCCTAATCTTTCTGTTCAAGCGCCATCTAC”: the binding signal is 0.898 RPM ratio (pull-down/input).
